The values that follow come from PMC4336329 (PLoS ONE, 2015).

Structures are written as SMILES. The whole screen tested about 310,000 compounds, of which about 14,000 (4.5%) showed an effect of 50% or more. Effects have a minus sign here. This is one part of the list.
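Note: peak tail current of the secondary pulse compared with the same well before compound.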

The target of the assay is human ether-à-go-go-related gene (hERG) potassium channel (human, UniProt Q12809). Put plainly: primary screen, population patch clamp on CHO cells stably expressing hERG.
human ether-à-go-go-related gene (hERG) potassium channel, sequence (Q12809 whole entry, looked up): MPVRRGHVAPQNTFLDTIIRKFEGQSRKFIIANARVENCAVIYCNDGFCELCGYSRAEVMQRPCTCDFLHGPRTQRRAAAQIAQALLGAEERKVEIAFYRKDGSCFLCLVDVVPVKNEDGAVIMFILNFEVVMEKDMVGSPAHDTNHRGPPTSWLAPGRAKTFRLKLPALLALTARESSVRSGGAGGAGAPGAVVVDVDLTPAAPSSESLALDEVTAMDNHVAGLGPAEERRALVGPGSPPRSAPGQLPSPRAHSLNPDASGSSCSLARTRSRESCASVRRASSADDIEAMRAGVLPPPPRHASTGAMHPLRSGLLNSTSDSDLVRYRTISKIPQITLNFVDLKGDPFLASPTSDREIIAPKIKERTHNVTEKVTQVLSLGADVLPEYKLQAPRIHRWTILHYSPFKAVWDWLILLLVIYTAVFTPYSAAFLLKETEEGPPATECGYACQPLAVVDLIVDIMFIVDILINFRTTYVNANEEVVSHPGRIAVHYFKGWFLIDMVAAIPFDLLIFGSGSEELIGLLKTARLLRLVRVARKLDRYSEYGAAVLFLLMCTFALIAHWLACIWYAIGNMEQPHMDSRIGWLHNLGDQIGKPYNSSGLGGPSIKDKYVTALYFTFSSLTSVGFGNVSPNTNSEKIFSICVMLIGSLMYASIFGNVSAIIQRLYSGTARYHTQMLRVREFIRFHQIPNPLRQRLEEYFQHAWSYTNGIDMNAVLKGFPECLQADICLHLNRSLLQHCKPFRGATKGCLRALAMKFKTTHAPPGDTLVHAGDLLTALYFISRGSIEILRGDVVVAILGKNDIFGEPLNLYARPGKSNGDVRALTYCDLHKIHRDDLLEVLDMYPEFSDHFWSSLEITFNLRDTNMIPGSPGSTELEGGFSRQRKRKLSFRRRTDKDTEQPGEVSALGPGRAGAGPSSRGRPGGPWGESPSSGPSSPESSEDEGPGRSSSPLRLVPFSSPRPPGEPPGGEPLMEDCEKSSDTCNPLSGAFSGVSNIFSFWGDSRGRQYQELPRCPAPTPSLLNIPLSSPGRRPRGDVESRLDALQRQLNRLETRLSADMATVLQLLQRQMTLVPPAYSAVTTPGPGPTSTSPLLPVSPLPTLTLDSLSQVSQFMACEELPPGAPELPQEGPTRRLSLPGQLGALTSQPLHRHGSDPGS
On to `Cc1sc(Nc2ccc([N+](=O)[O-])cc2)nc1-c1c(C)n(C)n(-c2ccccc2)c1=O`, for which the “hERG current change (%, negative = inhibition) at 10uM” value is listed as -34.3%.
As to `COc1ccc(NC(=O)CNC(=O)Cn2c(C)cc3ccccc3c2=O)c(OC)c1`, the “hERG current change (%, negative = inhibition) at 10uM” value is on record as -28.2%.
The figure for `CCOC(=O)C1CCN(C(=O)C2CCN(S(=O)(=O)c3cccc4nsnc34)CC2)CC1` is -16.1%.
With `O=C(CCCCCCC(=O)NCc1ccccc1)NCc1ccccc1`, the “hERG current change (%, negative = inhibition) at 10uM” value amounted to 10.6%.
The value for `CCN1CCN(C(=O)C2c3cc(OC)c(OC)cc3C(=O)N3CCc4ccccc4C23)CC1` (stereo not shown) was 4.31%; that for `C[N+]1([O-])[C@@H]2Cc3cc4c(cc3[C@@H]1Cc1cc3c(cc12)OCO3)OCO4` (stereo partly shown) was 0.536%.
The value for `O=S1(=O)CCS(=O)(=O)C1c1ccccc1` was -1.95%; that for `CC(=O)c1ccc(NC(=S)N2CCCCCC2)cc1` was -3.56%; that for `O=C(NC1CCCCC1)N1CCC(c2nc3ccc(Cl)cc3[nH]2)CC1` was -34.3%.
The value for `COc1ccc(-c2nc3c(Br)c(N)c(Br)cc3o2)cc1` was 7.14%.
As for `COc1ccc(OCCn2nnc(-c3ccc(Cl)cc3)n2)cc1`, the “hERG current change (%, negative = inhibition) at 10uM” value is 9.66%.
The value for `CCOc1cc(C)c(Cl)cc1S(=O)(=O)NC1CC(C)(C)NC(C)(C)C1` was 4.78%; that for `CC(=O)Nc1ccc(NC(=O)CSc2ccc(-c3cccs3)nn2)cc1` was 11.4%.
Regarding `Cc1ccc(S(=O)(=O)N/N=C/c2ccccc2O)cc1`, the “hERG current change (%, negative = inhibition) at 10uM” value came out at 12.9%.
The figure for `C/C(=N/NC(=O)c1cccc(N2CCCC2=O)c1)c1ccncc1` is 13%; for `O=C(NNc1cc(Cl)cc(Cl)c1)C1CCC1` it is 21.9%.
The figure for `O=C(c1ccco1)c1cn(Cc2ccccc2Cl)c2ccccc12` is 22.7%.
Consider `CCOC(=O)c1c(-c2ccc(-c3ccccc3)cc2)csc1NC(=O)CNCCN(C)C.Cl`, for which the “hERG current change (%, negative = inhibition) at 10uM” value is listed as -22.6%.
The figure for `Cc1nc2sccn2c(=O)c1S(=O)(=O)Nc1ccc(N2CCN(S(C)(=O)=O)CC2)cc1` is -2.74%; for `O=c1[nH]ncc(N/N=C\c2ccc(O)cc2O)c1Cl` it is 6.72%.
For `O=C(c1ccc([N+](=O)[O-])o1)N1CCN(Cc2ccccc2)CC1`, the “hERG current change (%, negative = inhibition) at 10uM” value was determined as 2.99%.
The figure for `COc1ccc(/C=C(\NC(=O)c2ccco2)C(=O)NCc2ccco2)cc1` is 8.89%; for `C#CCNC(=O)C1=C[C@@H](c2ccc(C#C)cc2)C[C@@H](OCCCCO)O1` it is -3.88%.
The value for `O=Cc1ccc(OCC(=O)NCC2CCCO2)cc1` (stereo not shown) was 14.2%; that for `CC1(C)CC(=O)C=C(NCCO)C1` was -0.4%; that for `COCC(=O)N1CCC(Oc2ccc(C(=O)NCCCC3CCCC3)cc2)CC1` was -71.5%.
The figure for `NNC(=O)Cn1nc2n(c1=O)-c1ccccc1SC2` is 27.3%.
As to `CC(=O)N1c2ccc(S(=O)(=O)NCCC(=O)Nc3ccc(OC(F)(F)F)cc3)cc2CC1C` (stereo not shown), the “hERG current change (%, negative = inhibition) at 10uM” value is listed as -13.6%.
The figure for `CCc1nnc(NC(=O)CN2C(=O)CCC2=O)s1` is 16.3%.
The figure for `O=C(Nc1cccc(C(=O)O)c1)/C(=C\c1ccc2c(c1)OCO2)NC(=O)c1ccccc1Cl` is 3.5%.
The figure for `CC(C)NC(=O)COc1coc(CN2CCN(c3ccccc3F)CC2)cc1=O` is 12.8%.
For the molecule `O=C(NCC1CCCO1)c1cc2n(n1)C(C(F)(F)F)CC(c1ccc(F)cc1)N2` (stereo not shown), the “hERG current change (%, negative = inhibition) at 10uM” value was -15.4%.
The figure for `Cc1cc(C)n(C(CC(=O)O)C(=O)O)n1` (stereo not shown) is 16%.
As to `Fc1ccc(-c2nc3c(-c4ccccc4)cnn3cc2CCN2CCOCC2)cc1`, the “hERG current change (%, negative = inhibition) at 10uM” value is reported as -15.2%.
The value for `COc1ccc(CCNC(=O)CCc2ccccc2)cc1OC` was 3.43%.
The value for `Cc1ccc(CN2Cc3cccc4c3[C@@H](CC2=O)[C@H](O)[C@H](O)C4)cc1` was 19.6%.
For `COc1cccc(N2CCN(C(=O)c3oc4ccccc4c3NC(=O)CCc3cc(OC)no3)CC2)c1`, the “hERG current change (%, negative = inhibition) at 10uM” value is recorded as -36.3%.
The value for `Cc1cccn2c(=O)c3cc(C(=O)N4CCN(C(=O)c5ccco5)CC4)n(C)c3nc12` was -22.4%.
On to `COc1cc(C(=S)N2CCOCC2)ccc1OC(=O)c1ccccc1[N+](=O)[O-]`, for which the “hERG current change (%, negative = inhibition) at 10uM” value amounted to 0.202%.
On to `CCCN1C2=NCCN2c2cc(C)c(C)cc21.Cl`, for which the “hERG current change (%, negative = inhibition) at 10uM” value is -30.7%.
The value for `C=C1N2CCC(CC2)C1(O)c1ccc(C)cc1.Cl` (stereo not shown) was -1.04%; that for `CS(=O)(=O)N(CC(=O)O)Cc1cccc(CN(CC(=O)O)S(C)(=O)=O)c1` was 6.35%; that for `Cc1ccc(CN(C)C(=O)c2c(C)nn(-c3ccccc3)c2C)cc1` was 8.12%.
Consider `Cc1ccc2c(c1N)C(=O)c1ccccc1C2=O`, for which the “hERG current change (%, negative = inhibition) at 10uM” value amounted to 18.5%.
The figure for `CCOC(=O)CC(=O)CSc1nc(-c2ccccc2)cc(-c2ccc(Cl)cc2)c1C#N` is 11.6%.
The figure for `CC1CCN(Cc2c(C(=O)N/N=C/c3ccc(C(F)(F)F)cc3)nnn2-c2nonc2N)CC1` is -1.89%; for `COc1cccc(C(=O)NCC(=O)N/N=C/c2ccc3c(c2)OCO3)c1` it is -5.63%.
The value for `O=C(NCCC1CCCCN1S(=O)(=O)c1ccc(Cl)cc1)C(=O)NCc1ccco1` (stereo not shown) was -19.6%.
As to `N/C(=N\[N+](=O)[O-])N1CCN(C(=O)OC2CCCC2)CC1`, the “hERG current change (%, negative = inhibition) at 10uM” value is 19.4%.
The value for `CC[C@@]12C(=O)N(c3ccc(C)cc3)C(=O)N1[C@H](c1ccc(OC)cc1)[C@@H]1C(=O)N(C(C)(C)C)C(=O)[C@@H]12` was 1.6%; that for `CCCCN(C)CCCNC(=O)c1ccc2c(c1)NC(=O)C(N1CCOCC1)S2` (stereo not shown) was 12.1%.
The figure for `CCOc1cc2c(cc1OCC)-n1cccc1C(c1cccc(F)c1F)NC2.Cl` (stereo not shown) is 9.96%; for `Cc1ccc(S(=O)(=O)Nc2cccc(C(=O)N3CCC(C(N)=O)CC3)c2)cc1` it is -0.822%.
The figure for `O=C(CN(c1ccc(F)cc1)S(=O)(=O)c1ccc2c(c1)OCCO2)NCc1ccccn1` is -24.6%.
Regarding `Cc1ccc(NC(=O)CNc2cccc(S(=O)(=O)N3CCCC3)c2)cc1F`, the “hERG current change (%, negative = inhibition) at 10uM” value is on record as -0.0102%.
The value for `CCc1ccc(-c2nnn(CC(=O)N(C3CCCC3)C3CCS(=O)(=O)C3)n2)cc1` (stereo not shown) was 2.13%.
For the molecule `CCCc1ccc(C(=O)NNc2cccc(C)c2)cc1`, the “hERG current change (%, negative = inhibition) at 10uM” value is on record as 2.49%.
The figure for `Cc1ccccc1C1C(C#N)=C2N=C(N)c3c(sc4c3CCCCC4)N2C2=C1C(=O)CCC2` (stereo not shown) is -10.1%; for `CC1CCN(C(=O)c2cc(-c3ccccc3O)on2)CC1` it is 13.4%; for `CCC1(c2ccc(Cl)cc2)NC(=O)N(Cc2ccc(C(=O)OC)cc2)C1=O` (stereo not shown) it is 15.4%.
The value for `O=C(NCc1ccccn1)C1CC(c2ccc(Cl)c(Cl)c2)=NO1` (stereo not shown) was 6.08%; that for `CCC1=Nc2cc(C(=O)NCCCN3CCN(C)CC3)ccc2Sc2ccccc21` was 20.2%.
The figure for `Cc1ccc(C)c(NC(=O)CN2C(=O)c3ccccc3C2=O)c1` is 18.1%; for `Cc1ccc(Nc2nc(-c3sc(NC(=O)c4ccc([N+](=O)[O-])cc4)nc3C)cs2)cc1` it is 14%.
On to `CCC(C)NC(=O)Cn1cc(S(=O)(=O)N2CCN(c3ccccc3F)CC2)c2ccccc2c1=O` (stereo not shown), for which the “hERG current change (%, negative = inhibition) at 10uM” value is -4.4%.
The value for `CCOC(=O)C1CCN(c2nc(-c3ccccc3)nc3c2oc2ccccc23)CC1.Cl` was 2.29%; that for `O=C(Nc1ccc(-n2ccc(C(F)(F)F)n2)cc1)Nc1cccc(Cl)c1` was 14.7%; that for `Cc1cc(OCC(=O)NNC(=S)NC(=O)c2ccc(Br)o2)ccc1Cl` was 14.7%.
The figure for `Brc1ccccc1/C=N/Nc1ccc2ccccc2n1` is 6.86%; for `COCCNC(=O)C(C)OC(=O)c1nsc(Cl)c1Cl` (stereo not shown) it is -0.412%.
The figure for `CN(C(=O)COC(=O)c1ccc2c(c1)OCO2)C1CCS(=O)(=O)C1` (stereo not shown) is 9.31%; for `CCCC1(c2ccccc2)NC(=O)NC1=O` (stereo not shown) it is 22.6%; for `O=C(c1cnn2ccccc12)N1CCCc2ccccc21` it is -14.2%.
As to `COc1ccccc1C(=O)N1CC(=O)Nc2ccc(F)cc2C1c1ccccc1` (stereo not shown), the “hERG current change (%, negative = inhibition) at 10uM” value is -7.83%.
With `Cc1nn(CC(=O)NCc2cccc3ccccc23)c(=O)c2ccccc12`, the “hERG current change (%, negative = inhibition) at 10uM” value is 15.5%.
The value for `O=c1c([N+](=O)[O-])c(N2CCCC2)c2ccccc2n1-c1ccccc1` was -6.38%.
The figure for `O=C(CCn1nc(-c2ccccc2)ccc1=O)N1CCN(c2ccccn2)CC1` is -53.1%; for `COc1ccc2c(c1OC)C(=O)N1C2SC(C)(C)[C@H]1C(=O)NC(C)C` (stereo partly shown) it is 22.6%.
The value for `O=C1C=C(c2cccc(Cl)c2O)C[C@@H](c2ccc(Cl)cc2)C1` was -0.771%; that for `Cc1ccc(Cn2nnnc2CN2CCC(NC(=O)c3ccc(Br)cc3)CC2)cc1` was -44.7%.
Take `Cc1ccc(NC(=O)c2ccco2)c(NC(=O)c2ccccc2C)c1`: the “hERG current change (%, negative = inhibition) at 10uM” value is given as 17.9%.
The value for `CCc1ccc(-c2cc(C(=O)N3N=C(C(F)F)CC3(O)C(F)F)c3ccccc3n2)cc1` (stereo not shown) was -15.7%.
In the case of `CC(C)C(=O)Nc1ccc2nn(-c3ccc(F)cc3)nc2c1`, the “hERG current change (%, negative = inhibition) at 10uM” value is -1.67%.
Take `Cn1c(=O)oc2cc(S(=O)(=O)N3CCCC(C(=O)Nc4ccc5c(c4)OCCO5)C3)ccc21` (stereo not shown): the “hERG current change (%, negative = inhibition) at 10uM” value is recorded as -9.9%.
The figure for `COc1ccc(/C=C2\SC(=O)N(CCc3nnc(N)s3)C2=O)cc1` is -10.9%.
